This is an account of results in PubChem BioAssay AID1240 (Sanford-Burnham Center for Chemical Genomics, 2008).

Screen size: about 50,000 compounds; about 800 (1.6%) showed an effect of 50% or more. The list shows a part of the results.

This assay deals with Bcl-2-like protein 10 (Homo sapiens) (UniProt Q9HD36). The experiment in a line: Phenotype converters, Bcl-B/TR3 peptide binding displacement, primary biochemical FP (AID 1240).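 Further: 0% = Bcl-B with tracer peptide and DMSO and 100% = tracer peptide lacking Bcl-B.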 The conditions noted are these: GST-Bcl-B / FITC-TR3 peptide fluorescence polarization; stronger effect = higher value; compound at 3.75 mg/L. (In fluorescence polarisation assays a small probe gives low polarisation when free and higher when bound to something large.)
UniProt Q9HD36, sequence (Q9HD36 whole entry, looked up): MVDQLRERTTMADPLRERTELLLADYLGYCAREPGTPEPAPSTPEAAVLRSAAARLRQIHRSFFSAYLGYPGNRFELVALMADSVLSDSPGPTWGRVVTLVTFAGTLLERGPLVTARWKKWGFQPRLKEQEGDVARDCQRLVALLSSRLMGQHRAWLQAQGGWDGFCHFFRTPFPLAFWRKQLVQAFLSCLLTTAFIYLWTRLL
For `O=C(NCc1ccncc1)c1ccc([N+](=O)[O-])cc1`, the displacement stood at 4.3%.

Consider `CC(C)CCNC(=O)/C=C/c1ccc([N+](=O)[O-])cc1`, for which the displacement is -3.7%.

As to `CC1CN(c2ccc([N+](=O)[O-])cc2)CCN1S(C)(=O)=O` (centres undefined), the displacement was -6%.

For the compound `CCCOc1ccc(C(=O)c2ccc(F)cc2)cc1OCCC`, the displacement came out at 7.8%.

Consider `Cc1ccc(-c2cc(C(=O)Nc3ccccc3)c3ccccc3n2)cc1`, for which the displacement is -14.7%.

On to `CCOc1ccc(/C=C2\C(=O)NC(=O)N(c3ccc(CC)cc3)C2=O)cc1OC`, for which the displacement is -10.4%.

As for `Cc1ccccc1-c1nc2ccccc2o1`, the displacement was 11.7%.

`Cc1ccc(-c2ccc(OCC(=O)Nc3ccccc3C(N)=O)cc2)cc1`: the displacement came to 4.4%.

As to `O=C(Oc1ccccc1/C=N/n1cnnc1)c1ccccc1Br`, the displacement is -8.5%.

Turning to `COc1ccc(-c2ccc(/C=C3/C(=O)NC(=O)N(c4ccc(C)cc4)C3=O)o2)c([N+](=O)[O-])c1`, the displacement came out at 83.5%.

As for `CCOC(=O)c1c(-c2ccccc2)oc2ccc(OCC(=O)O)cc12`, the displacement amounted to 9.4%.

Regarding `CCCN1C(=O)C(O)(C2COC(C)(C)CC2=O)c2ccccc21` (centres undefined), the displacement is 4.2%.

With `CCOC(=O)c1c(NC(=O)c2ccc(OCC(C)C)cc2)sc(C)c1C`, the displacement is -2%.

On to `O=S(=O)(c1ccc(Cl)cc1)N1CCN(Cc2cccnc2)CC1`, for which the displacement was -12.3%.

On to `O=C(Nc1ccc(-c2nc3ccccc3s2)c(O)c1)c1ccc2c(c1)OCCO2`, for which the displacement is -3.8%.

As for `COC(=O)c1ccc(OCC(O)CN2C(=O)c3ccccc3C2=O)cc1` (centres undefined), the displacement is -1.1%.

On to `O=C(NC(=S)Nc1ccc2oc(-c3ccc(I)cc3)nc2c1)c1ccco1`, for which the displacement is 28.7%.

For `COc1cccc(N(CC(=O)Nc2ccccc2)S(=O)(=O)c2ccccc2)c1`, the displacement amounted to 24.6%.

Take `Cc1ccc(OCC(=O)Nc2cccc3c2CCCC3)c(Br)c1`: the displacement was -6.7%.

`COc1ccc(C(=O)Nc2ccc(N(C)C)cc2)cc1`: the displacement stood at 6%.

As for `COc1cc(/C=C2\SC(=S)N(c3cccc(Cl)c3)C2=O)ccc1O`, the displacement is -10%.

For `COC(=O)c1cc(NC(=O)CCc2ccccc2)cc(C(=O)OC)c1`, the displacement was 16.8%.

Consider `Cc1cc(/C=C2\NC(=S)NC2=O)c(C)n1-c1cccc([N+](=O)[O-])c1`, for which the displacement was found to be 13.6%.

With `CCNC(=O)C(=O)Nc1ccc(OC)c(Cl)c1`, the displacement was determined as 1.9%.

`Cc1ccc(N=C2NC(=O)/C(=C/c3ccc(F)cc3)S2)cc1Cl`: the displacement was -6.4%.

Regarding `COc1cc(C=NN2CCN(Cc3ccc(C)cc3C)CC2)cc(OC)c1OC`, the displacement is -6.5%.

In the case of `O=C1NC(=Nc2cccc(Cl)c2Cl)S/C1=C\c1ccc([N+](=O)[O-])cc1`, the displacement is -105%.

Consider `COc1ccccc1N1C(=O)c2ccc3c4c(ccc(c24)C1=O)CC3`, for which the displacement was determined as 13.4%.

As to `Cc1ccc(OCC(=O)N/N=C/c2c(C)[nH]n(-c3ccccc3)c2=O)cc1`, the displacement amounted to 13.1%.

As to `COc1cccc(C2NC(=S)NC(C)=C2C(=O)Nc2ccc(C)cc2)c1` (centres undefined), the displacement was -16.6%.

For the compound `COc1ccc(-c2n[nH]c(=S)n2/N=C/c2cccs2)cc1`, the displacement is -16.6%.

Turning to `Cc1cccc(NC(=O)c2cc3cc(Br)ccc3oc2=O)c1`, the displacement was found to be 5.9%.

Consider `O=C(Nc1ccc(O)c(-c2nc3ccccc3s2)c1)c1ccc2c(c1)OCCO2`, for which the displacement came to 82.5%.

For `Cc1cc(C)nc(NS(=O)(=O)c2ccc(NC(=O)c3ccc(S(=O)(=O)N4CCOCC4)cc3)cc2)n1`, the displacement was found to be 4.1%.

Consider `CC1=NN(C(=O)c2ccc(Cl)cc2)C(O)(c2ccccc2)C1` (centres undefined), for which the displacement turned out to be 5.8%.

In the case of `Cc1ccc(C2=CC(=O)N(c3cccc(C(F)(F)F)c3)C2=O)cc1`, the displacement stood at 5.3%.

On to `Cc1c(C(c2ccc(C(=O)O)cc2)c2c(C)n(C)n(-c3ccccc3)c2=O)c(=O)n(-c2ccccc2)n1C`, for which the displacement was -9.1%.

As for `COC(=O)c1c(NC(=O)Cc2ccccc2)sc2c1C(C(=O)OC)CC2` (centres undefined), the displacement is -14.8%.

In the case of `COc1ccc(S(=O)(=O)Nc2cc(C)ccc2C)cc1OC`, the displacement is 1.2%.

With `O=C(Nc1ccc(OCc2ccccc2)cc1)c1ccc(Cl)c([N+](=O)[O-])c1`, the displacement is -0.2%.

Regarding `CCOC(=O)C1=C(C)N=c2s/c(=C\c3ccc([N+](=O)[O-])cc3)c(=O)n2C1c1ccccc1` (centres undefined), the displacement turned out to be 12.9%.

On to `Cc1ccccc1OCC(=O)Nc1cccc(I)c1`, for which the displacement was -2.4%.

Consider `CCOc1ccc(/C=C2\N=C(c3ccccc3Br)OC2=O)cc1`, for which the displacement is -2.1%.

`CCOC(=O)C1=NNC2C(=O)N(c3ccc(C)cc3C)C(=O)C12` (centres undefined): the displacement is -14.6%.

`COc1ccc(CN2CCN(C(=O)c3ccc(-c4ccccc4)cc3)CC2)cc1OC`: the displacement was -7.9%.

As for `O=C(O)CCCCCN1C(=O)C(=O)/C(=C(\O)c2ccc(Br)cc2)C1c1cccc(F)c1` (centres undefined), the displacement was -11.8%.

Regarding `COc1ccc2c(c1)OCC/C2=N\OC(=O)c1ccc(Oc2ccccc2)cc1`, the displacement is -10.3%.

On to `COC(=O)c1cc(S(=O)(=O)N2CCOCC2)ccc1Cl`, for which the displacement is -4.1%.

On to `Cc1ccc(OCc2nc(-c3ccc(Cl)cc3)no2)c(Br)c1`, for which the displacement was found to be 12.8%.

In the case of `COc1ccc(/C=N/NC(=O)COc2ccc3c(C)cc(=O)oc3c2)cc1`, the displacement was 14.7%.

Turning to `CCOC(=O)CSc1nc2cc(OCC)ccc2n1C`, the displacement was -6%.

With `COc1ccc(-c2nn(CN3CCOCC3)c(=S)o2)cc1`, the displacement is -10.4%.

As for `Cc1ccc2oc(C(=O)Nc3ccc(N4CCOCC4)c(Cl)c3)c(C)c2c1`, the displacement was -4%.

As to `CCOc1ccc(C(=O)Nc2ccc3ccccc3c2)cc1[N+](=O)[O-]`, the displacement worked out at 13.2%.

Take `Cc1cccc(NC(=O)CCC(=O)N/N=C/c2ccncc2)c1`: the displacement turned out to be 0.1%.

On to `CC12CC(O)C3(F)C(CCC4=CC(=O)C=CC43C)C1CC=C2C(=O)CO` (centres undefined), for which the displacement was -14.9%.

On to `O=C(NCc1ccco1)Nc1ccncc1`, for which the displacement was found to be 4.5%.

As for `COc1cc(OC)cc(C(=O)N2CCN(Cc3cccc4ccccc34)CC2)c1`, the displacement stood at 5.2%.

Consider `Cc1ccc2c(nc3s/c(=C\c4cccc(Cl)c4Cl)c(=O)n32)c1C`, for which the displacement is -9.5%.

As to `CCOC(=O)c1c(C)oc2ccc(NS(=O)(=O)c3cc(Cl)ccc3Cl)cc12`, the displacement turned out to be 5.9%.

For `Cc1cccc(NC(=O)CCCOc2ccccc2)c1`, the displacement was -6.4%.

Consider `COc1ccc(-c2nnc(NC(=O)CCc3ccccc3)s2)cc1OC`, for which the displacement came to 6%.

As for `Cc1cc(NC(=O)COC(=O)/C=C/c2ccc([N+](=O)[O-])cc2)no1`, the displacement amounted to 17.2%.

Take `Cc1ccc(C(=O)NC(NC(=S)Nc2cccc3ccccc23)C(Cl)(Cl)Cl)cc1` (centres undefined): the displacement is 54.9%.

Regarding `NC(=O)c1ccc[n+](CC(=O)c2cc3ccccc3oc2=O)c1`, the displacement came to 0%.

Take `COc1ccc(C2/C(=C(/O)c3ccc(C)cc3)C(=O)C(=O)N2CCCCCC(=O)O)cc1OC` (centres undefined): the displacement is -12.3%.

Regarding `O=C(O)CC(NC(=O)Cc1ccccc1)c1ccccc1` (centres undefined), the displacement was found to be 6.2%.

In the case of `N#CC1=C(SCC(=O)Nc2ccccc2)NC(=O)CC1c1ccc(F)cc1` (centres undefined), the displacement turned out to be 1.4%.

As for `COc1ccccc1N(CC(=O)NCc1ccncc1)S(=O)(=O)c1ccccc1`, the displacement stood at 4.9%.

Consider `O=C(Nc1nnc(-c2ccccc2)s1)c1ccc(Cl)cc1Cl`, for which the displacement came out at 16.3%.

In the case of `Nc1ccc(S(=O)(=O)O)c2cccc(S(=O)(=O)O)c12`, the displacement came out at 7.8%.

In the case of `Cc1cc(C=C2C(=O)NC(=S)NC2=O)c(C)n1-c1cccc(Cl)c1`, the displacement stood at 107%.

`CC(C)(C)N1C(=O)c2ccc(C(=O)Nc3cccc(O)c3)cc2C1=O`: the displacement stood at 13.1%.

On to `COc1cc(CNc2ccc(C)c(C)c2)cc(OC)c1OC`, for which the displacement stood at 15.1%.

Consider `COc1ccc(/C=C/C(=O)Nc2ccc(NC3CCCCC3)c3c2C(=O)c2ccccc2C3=O)cc1`, for which the displacement amounted to 10.5%.

Consider `COCCNC(=O)/C(=C/c1ccco1)NC(=O)c1ccc(OC)cc1`, for which the displacement was found to be 22.2%.

As to `C=CCOc1c(Cl)cc(/C=C2/C(=O)NN(c3ccc(C)c(C)c3)C2=O)cc1OC`, the displacement was -0.5%.

Take `CCS(=O)(=O)Nc1ccc(Cc2ccncc2)cc1`: the displacement was 1.2%.

On to `CCOC(=O)CSc1cc(C)nc2ccc(C)cc12`, for which the displacement is 1.4%.

For the compound `O=C(Nc1ccc(Br)cn1)Nc1ccccc1Cl`, the displacement is -3.3%.

With `CCOc1ccc(C=C2C(=O)NC(=S)NC2=O)cc1Cl`, the displacement stood at 4%.

As to `Cc1ccc(C(=O)N2CCN(C(=O)CN3CCOCC3)C2)cc1`, the displacement was -1.7%.

As for `COc1cc(/C=C(/C#N)c2nc3ccccc3[nH]2)c([N+](=O)[O-])cc1OCCC(C)C`, the displacement came to 69.6%.

For the compound `O=C(Nc1nnc(C23CC4CC(CC(C4)C2)C3)s1)c1cccs1`, the displacement is 6.6%.

Regarding `CC(C)Cc1nn2c(=O)cc(O)nc2s1`, the displacement was -4.2%.

Consider `CC(C)CNC(=O)C(=O)Nc1ccc(Oc2ccccc2)cc1`, for which the displacement was 5.2%.

`CC(C)(C)c1cc(N2C(=O)C(=O)/C(=C(\O)c3ccccc3)C2c2ccc(Br)cc2)no1` (centres undefined): the displacement was -9.5%.

Consider `CC1C2CC(CC1(C)C)N(C(=O)Nc1ccc3nccnc3c1)C2` (centres undefined), for which the displacement was 5.2%.

Regarding `Cc1ccc(N2C(=O)CC(N3CCCN(C)CC3)C2=O)cc1` (centres undefined), the displacement turned out to be 8.1%.

For the compound `C1=C=CC(OCCOc2ccc(/C=N/n3cnnc3)cc2)=CC=1`, the displacement was found to be 3.7%.

Turning to `Cc1ccc2nc(-c3ccc(N)cc3)cc(-c3ccccc3)c2c1`, the displacement was found to be 15.5%.

As to `O=C1CC(N=Cc2cccc(O)c2)=NN1c1ccccc1`, the displacement came out at 11.2%.

As to `Cc1c(C(=O)NCC#N)cccc1[N+](=O)[O-]`, the displacement was -3.3%.

For the compound `CCc1cc(=O)oc2c(C)c(OC(C)=O)ccc12`, the displacement is -9%.

For `COc1ccc(CCNC(=O)C(=O)Nc2ccc(C)cc2)cc1`, the displacement was -14.1%.

In the case of `O=C(CC1Nc2ccccc2NC1=O)c1ccccc1` (centres undefined), the displacement amounted to 7.3%.

Take `C/C(=N\Nc1nc(-c2ccc(C)cc2)nc2ccccc12)c1cccc([N+](=O)[O-])c1`: the displacement was 10.5%.

For `O=C(NCCc1ccc(F)cc1)C(=O)NCC1CCCO1` (centres undefined), the displacement was 7.9%.

`O=CN1CCN(c2nc(-c3ccccc3)c3cc(Br)ccc3n2)CC1`: the displacement is 84.9%.

As to `Cc1ccc(NC(=O)C2CC=CCC2C(=O)O)c(C)c1` (centres undefined), the displacement is 24.9%.

With `COc1cc2ccccc2cc1C(=O)Nc1ccccc1C`, the displacement is -10.2%.

Turning to `COc1ccc(/C=C2\C(=O)N(c3cccc(C(=O)O)c3)N=C2C)cc1OC`, the displacement is 2.4%.

For the compound `O=C(Nc1ccc2c(c1)OCCO2)C(Sc1ccccc1)c1ccccc1` (centres undefined), the displacement came out at 6.1%.

Turning to `Cc1ccc(C(=O)NCCCNc2ccc([N+](=O)[O-])cc2)cc1`, the displacement was found to be 11.9%.

As to `O=C(/C=C/c1ccc(-c2ccccc2[N+](=O)[O-])o1)c1ccc(Cl)cc1`, the displacement came out at 16.4%.

In the case of `CC(C)OC(=O)c1c(-c2ccc(Br)cc2)csc1NC(=O)C1C2CCC(C2)C1C(=O)O` (centres undefined), the displacement is -2.4%.

Turning to `Cc1cc(Cl)ccc1OCC(=O)NCCCN1CCOCC1`, the displacement is -0.6%.

For the compound `COc1ccc2c(c1)nc(SCc1ccccc1)n2C`, the displacement was -1.6%.

For `CCOC(=O)COc1c(C)cccc1C`, the displacement was 16.9%.
